Measured values reported in PubChem BioAssay AID588342 (National Center for Advancing Translational Sciences (NCATS), 2011).
Among all 360,000 compounds or so, about 25,000 (6.9%) were called active. The inconclusive results got no clear call from the source; some entries with a clear call stand among them for comparison. The call rests on the fitted dose curve; in most records, active means well fitted inhibition curve with a large enough effect; inconclusive means small, poorly fitted or top-dose-only effect; inactive means flat fitted curve, though single readings scatter. Potencies of inconclusive entries are doubtful fits and often do not repeat.

Target: Luciferin 4-monooxygenase (Photinus pyralis) (UniProt P08659)
Sequence of UniProt P08659 (P08659 whole entry, looked up): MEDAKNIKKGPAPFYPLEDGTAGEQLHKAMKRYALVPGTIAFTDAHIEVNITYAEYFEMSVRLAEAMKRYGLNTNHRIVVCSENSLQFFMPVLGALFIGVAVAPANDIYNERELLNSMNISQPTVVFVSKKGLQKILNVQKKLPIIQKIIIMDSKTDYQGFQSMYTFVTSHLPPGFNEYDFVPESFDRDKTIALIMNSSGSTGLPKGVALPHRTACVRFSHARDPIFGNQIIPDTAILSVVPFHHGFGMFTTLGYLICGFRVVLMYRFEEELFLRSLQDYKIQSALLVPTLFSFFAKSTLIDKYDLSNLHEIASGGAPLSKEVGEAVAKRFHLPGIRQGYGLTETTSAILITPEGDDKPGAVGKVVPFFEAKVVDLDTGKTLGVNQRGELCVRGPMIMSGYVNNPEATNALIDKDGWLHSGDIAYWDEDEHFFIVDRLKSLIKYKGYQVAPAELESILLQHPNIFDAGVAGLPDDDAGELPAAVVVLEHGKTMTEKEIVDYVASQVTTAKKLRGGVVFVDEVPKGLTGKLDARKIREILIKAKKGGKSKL
Test: qHTS profiling assay for firefly luciferase inhibitor/activator using purifed enzyme and Km concentrations of substrates (counterscreen for miR-21 project); further: nearly all actives have a fitted effect of over 55% in size;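 on activity change, negative = inhibition: plate controls were vehicle for no effect and reference inhibitor for full effect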
Settings: purified FLuc, luminescence inhibition; activity change, negative = inhibition: at 57.5 µM (top of the series)
In short: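 Biochemical qHTS of compounds, final roughly 60 µM downward over six points, against 10 nM purified firefly luciferase using Km concentrations of substrates (10 uM D-luciferin, 10 uM ATP) in Tris acetate pH 7.5 buffer; luminescence output.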
Potency means the concentration at half of the fitted maximal effect; tags describe the fitted curve by direction and shape.

Row | Structure (SMILES) | Potency | activity change, negative = inhibition
1 | Cc1nc(NC(=O)C2CC2)sc1C(=O)Nc1ccccc1Cl | inconclusive: 6.75 µM [inhibitor, partial curve, poor fit] | –
2 | COc1ccccc1NC(=O)Cn1c(=O)n(CCCCCC(=O)NCc2ccccc2)c(=O)c2sccc21 | – | inactive: -2.92%
3 | N#C/C(=C/c1ccc(N2CCOCC2)o1)c1ccc(Cl)cc1 | active: 8.49 µM | –
4 | CCOc1ccc(CN2CCN(Cc3cccn3-c3ncccn3)CC2CCO)cc1 (stereo not given) | – | inactive: -0.669%
5 | CCOc1ccc(NC(=O)COC(=O)CCC(=O)c2cccs2)cc1 | inconclusive: 23.9 µM [inhibitor, partial curve, poor fit] | –
6 | O=C(Cc1c(Cl)cccc1Cl)Nc1ccncc1Cl | inconclusive: 26.9 µM [inhibitor, single point] | –
7 | COc1ccc(/C=C/C(=O)NC(=S)NNC(=O)c2cnccn2)cc1 | active: 16.9 µM | –
8 | O=C(Nc1ccc2nc(SCC(=O)N3CCc4ccccc43)sc2c1)c1ccccc1F | inconclusive: 9.53 µM [inhibitor, partial curve, poor fit] | –
9 | COc1ccc(-n2cccc2/C=C2\C(=N)N3N=C(c4ccco4)SC3=NC2=O)cc1 | inconclusive: 5.36 µM [inhibitor, partial curve, poor fit] | –
10 | CC(=O)Nc1cccc(C(=O)N/N=C/c2cccnc2)c1 | inconclusive: 23.9 µM [inhibitor, partial curve, poor fit] | –
11 | COc1cccc(N2CCN(C(=O)c3ccc(NC(=O)c4nsc5ccccc45)cc3)CC2)c1 | active: 1.2 µM | –
12 | O=C(Nc1ccc2c(c1)OCCO2)c1cccc(Cl)c1Cl | active: 7.57 µM | –
13 | CCN1C=CC(=C2C(=O)c3ccccc3C2=O)C=C1 | active: 0.0849 µM | –
14 | CCCCOc1cccc(NC(=O)CSc2nccn2C)c1 | inconclusive: 21.3 µM [inhibitor, partial curve, poor fit] | –
15 | Cc1nc(/C=C/c2ccccc2)[nH]c(=O)c1-c1ccccc1 | active: 1.9 µM | –
16 | COc1cc(C2NC(=S)NC3=C2CCc2ccccc23)cc(OC)c1OC (stereo not given) | – | inactive: -1.77%
17 | Cc1ccc(NC(=O)CSc2nc(-c3ccccc3Cl)nc3cc(=O)[nH]n23)c(C)c1 | inconclusive: 26.9 µM [inhibitor, partial curve, poor fit] | –
18 | O=C1OC(/C(=C\Nc2ccc(F)cc2F)[N+](=O)[O-])c2ccccc21 (stereo not given) | inconclusive: 23.9 µM [inhibitor, single point] | –

Row | Structure (SMILES) | Potency | activity change, negative = inhibition
19 | Cc1ccc(C(=O)COC(=O)c2ccco2)cc1C | active: 1.51 µM | –
20 | O=C(CSc1nc(-c2ccc(F)cc2)cc(C(F)(F)F)n1)NCCc1ccccc1 | – | inactive: -3.28%
21 | Fc1ccccc1Cc1noc(CN2CCC(OCc3cccnc3)CC2)n1 | inconclusive: 19 µM [inhibitor, single point] | –
22 | O=C(CCCn1c(=S)[nH]c2ccc(Br)cc2c1=O)N1CCN(c2ccccn2)CC1 | – | inactive: 3.18%
23 | Nc1ccccc1C(=O)Nc1cccc(C(=O)O)c1 | active: 2.69 µM | –
24 | C=CCNC(=S)Nc1nc2c(cc1C(=O)OCC)CCCC2 | inconclusive: 23.9 µM [inhibitor, partial curve, poor fit] | –
25 | COc1ccc(NC(=O)N2CCCCCC2)cc1 | inconclusive: 21.3 µM [inhibitor, partial curve, poor fit] | –
26 | COc1ccccc1NC(=O)c1cc(C)oc1C | inconclusive: 37.9 µM [inhibitor, partial curve, poor fit] | –
27 | CN(C)c1ccc(C(=O)/C=C/c2ccco2)cc1 | active: 0.379 µM | –
28 | CCc1nn(CC(=O)N2CCN(c3cccc(C(F)(F)F)c3)CC2)c(=O)c2cccn12 | inconclusive: 19 µM [inhibitor, partial curve, poor fit] | –
29 | COc1ccc(C2CC(c3c(O)cc(C)oc3=O)=NCCS2)c(OC)c1 (stereo not given) | active: 10.7 µM | –
30 | O=C(NC1=NC2CCCCC2N1)c1ccccc1 (stereo not given) | active: 1.51 µM | –
31 | CCCc1cc(NCCCCO)n2c(nc3ccccc32)c1C#N | inconclusive: 23.9 µM [inhibitor, partial curve, poor fit] | –
32 | COc1ccc2cc(C(=O)NCCCN3CCCC3=O)[nH]c2c1 | inconclusive: 37.9 µM [inhibitor, partial curve, poor fit] | –
33 | O=C(COc1ccc2c(-c3ccccc3)cc(=O)oc2c1)N[C@@H](Cc1c[nH]c2ccc(O)cc12)C(=O)O | inconclusive: 21.3 µM [inhibitor, single point] | –
34 | Nc1ccccc1SCc1ccccc1 | inconclusive: 26.9 µM [inhibitor, partial curve, poor fit] | –
35 | COc1ccc2cc(C(=O)NC3CCCCC3)c(=O)oc2c1 | inconclusive: 0.757 µM [inhibitor, partial curve, poor fit] | –
